Assay results from article PMC4336329 (PLoS ONE, 2015).
Among all 310,000 compounds or so, about 2,200 (0.71%) showed an effect of 50% or more. Effects have a minus sign here. Some of the results follow.

Target: human ether-à-go-go-related gene (hERG) potassium channel (human, UniProt Q12809)
Experiment: primary screen, population patch clamp on CHO cells stably expressing hERG

Sequence of human ether-à-go-go-related gene (hERG) potassium channel (Q12809 whole entry, looked up): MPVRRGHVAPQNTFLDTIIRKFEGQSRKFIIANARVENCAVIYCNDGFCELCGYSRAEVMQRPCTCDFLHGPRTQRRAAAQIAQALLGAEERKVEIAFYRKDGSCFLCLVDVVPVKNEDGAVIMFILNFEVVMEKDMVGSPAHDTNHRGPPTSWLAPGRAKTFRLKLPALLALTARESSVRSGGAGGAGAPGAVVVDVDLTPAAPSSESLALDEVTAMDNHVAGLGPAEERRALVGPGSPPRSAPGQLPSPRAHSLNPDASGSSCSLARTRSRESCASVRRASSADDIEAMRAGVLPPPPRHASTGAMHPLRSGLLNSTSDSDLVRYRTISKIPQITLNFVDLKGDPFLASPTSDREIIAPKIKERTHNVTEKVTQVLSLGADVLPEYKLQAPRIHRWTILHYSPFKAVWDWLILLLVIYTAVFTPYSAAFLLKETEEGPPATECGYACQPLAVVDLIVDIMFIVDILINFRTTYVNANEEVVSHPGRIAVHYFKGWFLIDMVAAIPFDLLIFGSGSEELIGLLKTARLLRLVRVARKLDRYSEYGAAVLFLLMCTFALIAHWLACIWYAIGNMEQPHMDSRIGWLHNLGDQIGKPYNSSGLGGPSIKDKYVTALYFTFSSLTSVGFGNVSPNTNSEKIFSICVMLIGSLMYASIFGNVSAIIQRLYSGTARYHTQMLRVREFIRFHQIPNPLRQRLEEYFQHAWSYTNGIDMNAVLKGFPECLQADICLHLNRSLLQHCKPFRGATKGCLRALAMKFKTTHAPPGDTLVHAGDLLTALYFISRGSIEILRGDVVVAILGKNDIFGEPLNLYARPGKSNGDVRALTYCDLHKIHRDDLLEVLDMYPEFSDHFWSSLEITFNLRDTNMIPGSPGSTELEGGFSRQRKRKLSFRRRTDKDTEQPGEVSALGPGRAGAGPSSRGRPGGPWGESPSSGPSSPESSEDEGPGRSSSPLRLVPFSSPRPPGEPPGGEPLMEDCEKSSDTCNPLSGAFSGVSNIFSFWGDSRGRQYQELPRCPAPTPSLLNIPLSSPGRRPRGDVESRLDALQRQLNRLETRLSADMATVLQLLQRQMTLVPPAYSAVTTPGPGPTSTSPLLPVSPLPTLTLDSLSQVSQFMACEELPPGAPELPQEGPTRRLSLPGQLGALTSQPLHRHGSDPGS

SMILES	hERG current change (%, negative = inhibition) at 1uM
CCN(CC)C(=O)CSc1nnc(-c2ccco2)n1Cc1ccco1	-3.83%
CCCn1nnc(NC(=O)c2ccc(Cl)cc2Cl)n1	11%
O=C(c1ccc(F)cc1)c1ccc(N2CCCCC2)cc1	6.67%
CCCCCCCCCCCCCCCC(=O)OC/C=C(C)/C=C/C=C(C)/C=C/C1=C(C)CCCC1(C)C	10.2%
COc1ccc(OC)c(NC(=O)C(=O)NCCC2=CCCCC2)c1	9.87%
Cc1ccc(SCC(=O)OC(C)C(=O)N2CCc3ccccc32)cc1 (centres unmarked)	5.64%
Cc1c2c(nc3c(C(=O)NC4CC4)cnn13)CCCC2	4.37%
COc1cc(/C=C(/C#N)c2nc3ccccc3[nH]2)ccc1OCc1ccc(C(=O)O)o1	9.9%
CC(=O)N1CCN(c2ccccc2NC(=O)c2ccc3ccccc3c2)CC1	-4.62%
O=c1cc(-c2cc3ccccc3o2)c2cc(O)ccc2o1	15.2%
O=C(CN1C(=O)c2ccccc2C1=O)Nc1cc(C(=O)O)cc(C(=O)O)c1	5.36%
O=C(NCc1ccccn1)C1CCCN(S(=O)(=O)c2ccccc2)C1 (centres unmarked)	15.1%
CC(C)(C)C(=O)Oc1cc(N)n(S(=O)(=O)c2ccc(F)cc2)n1	14.6%
CC(=O)n1cc([C@@H]2C=C(C(=O)N3CCN(Cc4ccccc4)CC3)O[C@H](OCc3ccc(CO)cc3)C2)c2ccccc21	-0.588%
N#C/C(=N\O)c1nc(-c2ccccc2)cs1	12.4%
O=C(c1ncc[nH]1)c1ccco1	11.8%
COc1cccc(N2CCN(C(=O)Nc3ccc4c(c3)NC(=O)CO4)CC2)c1	-12%
O=c1[nH][nH]c(C(F)(F)F)c1/C=N/N1CCOCC1	18.2%
COc1ccc(C(N)=O)cc1NC(=O)CC(O)(C(F)(F)F)C(F)(F)F	15.2%
COc1ccc(NC(=O)N2Cc3ccccc3CC2C(=O)NC(C)(C)C)cc1 (centres unmarked)	2.06%
COc1ccccc1NC(=O)CSc1nnc(CC(=O)Nc2ccccc2C)n1C	11.7%
CCOC(CNC(=O)C(=O)NCC(c1ccco1)N1CCN(c2ccc(OC)cc2)CC1)OCC (centres unmarked)	7.37%

SMILES	hERG current change (%, negative = inhibition) at 1uM
CCn1ncc([N+](=O)[O-])c1C(=O)N1CCCC1	15.9%
O=c1c(Cl)c(NCCCO)cnn1-c1nc2ccccc2[nH]1	0.238%
CCN(CC)C(=O)Oc1cc(COC)nc(-c2ccccc2)n1	6.59%
CC(CCc1ccccc1)NC(=O)C1CCCN(C(=O)c2cc3sccc3n2C)C1 (centres unmarked)	3.71%
COC(=O)c1ccc(NC(=O)CSc2nnc(-c3ccncc3)n2N)cc1	2.59%
COc1ccc(NC(=O)C2CCCN2S(=O)(=O)c2cccc3cccnc23)c(OC)c1 (centres unmarked)	10.9%
CCOC(=O)c1ccc2c(c1)C(=O)N(C1CCCCC1)C2=O	9.59%
CCOC(=O)N1CCN(C(=O)c2cc(OC)cc(OC)c2)CC1	5.19%
COCCn1c(C)cc(C(=O)COC(=O)/C=C/c2c(C)nn(C3CCS(=O)(=O)C3)c2Cl)c1C (centres unmarked)	0.17%
COc1cccc2cc(C(C)N(CCCN3CCOCC3)C(=O)Nc3ccccc3)oc12 (centres unmarked)	5.29%
CCOC(=O)c1cn(CC)c2cc(N3CCN(C)CC3)c(F)cc2c1=O	12.6%
Cc1cc(C(=O)Nc2ccc3ccccc3c2)c(C)o1	7.59%
COC(=O)c1ccc(N(C(=O)CNC(=O)c2ccco2)C(C(=O)NCC2CCCO2)c2ccc(OC)c(OC)c2)cc1 (centres unmarked)	13.3%
O=C(NCc1ccccn1)c1cc(-c2ccccc2Cl)nc2ccccc12	6.9%
O=C(c1sccc1-c1ccccc1)N1CCN(S(=O)(=O)c2ccccc2F)CC1	-15.4%
Nc1cc(=O)[nH]c(=O)n1-c1ccc(Cl)cc1	19.2%
Cc1cc(OC(C)C(=O)NCc2ccncc2)c2c3c(c(=O)oc2c1)CCC3 (centres unmarked)	10.5%
Cc1cc(C(=O)Nc2ccc(Cl)cc2)c(C)n1-c1ccccc1	9.67%
COc1cc2ccccc2cc1C(=O)N(CCN(C)C)c1nc2c(OC)ccc(OC)c2s1.Cl	14%
CCC(CC)C(=O)c1c[nH]c(C(=O)NCc2ccccc2OC)c1	10%
CCOC(=O)N1CCN(c2c(NCC3CCN(Cc4cccc(C)c4)CC3)c(=O)c2=O)CC1	6.52%
CC(C)c1ccc(NC(=O)C(c2ccccc2)N2CC(=O)Nc3ccccc32)cc1 (centres unmarked)	13%
